Reference: paper PMC5362816, “Calmodulin is responsible for Ca^2+-dependent regulation of TRPA1 Channels” (Scientific Reports, 2017)

B1: TRPV1-V5 (natural protein)
chain: not shown
notes: TRPV1, rat cDNA in pcDNA3-V5-His-TOPO; source: HEK293, transfected, in lysate
B2: TRPA1-V5-His (×6) (natural protein)
chain: not shown
notes: TRPA1, mouse cDNA in pcDNA3-V5-His-TOPO; The vector pcDNA3-V5-His-TOPO is surmised to add the tags at the C-terminus; also called full-length TRPA1; WT TRPA1; source: HEK293, transfected, in lysate
B3: TRPV4 (V5-His tagged) (natural protein)
chain: not shown
notes: TRPV4, rat cDNA in pcDNA3-V5-His-TOPO; source: HEK293, transfected, in lysate

Molecular target: T1, CaM-agarose (Sigma) (UniProt P62157, coupled to agarose)
T1 construct: calmodulin coupled to agarose, bought from Sigma; Commercial reagent; also called calmodulin; source: bought: Sigma (CaM-agarose)
Assay: pull-down; CaM-agarose (Sigma) incubated with HEK293 lysate expressing a V5-His-tagged TRP channel; 20 mM Tris-HCl pH 7.4, 150 mM NaCl, 1% NP-40, 4 °C; 1 mM Ca2+ (Fig. 2A) or 2 mM Ca2+ (Fig. 2B); blot with anti-V5
Settings: one partner purified

Row | Binder | relative binding to CaM (normalized by total input)
1 | B1 | 0.3
2 | B2 | 22.5
3 | B3 | 1.4
